This sample is rich in variants without activity.
B1: TPR 5TU (parent)
chain: GGAUCUUCUCGAUCUAACAAAAAAGACAAAUCUGCCACAAAGCUUGAGAGCAUCUUCGGAUGCAGAGGCGGCAGCCUUCGGUGGCGCGAUAGCGCCAACGUUCUCAACUAUGACACGCAAAACGCGUGCUCCGUUGAAUGGAGUUUAUCAUG

Variants of: B1
Test: polymerase ribozyme fitness, log enrichment relative to wild type (log ratio); higher = more active; in vitro selection for triplet polymerase activity
Method in brief: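 To select mutant libraries of each subunit of a heterodimeric triplet polymerase ribozyme, built by PCR and transcribed, each was annealed with a biotinylated primer, partner subunit and triplets, then incubated frozen at −7 °C. Extended constructs were gel-excised, captured on streptavidin beads and amplified by RT-PCR, in one round carried out in triplicate. Illumina sequencing of input and output libraries kept genotypes with ≥10 input reads and ≥1 read per output. Fitness is the base-2 logarithm of genotype enrichment relative to wild-type enrichment, from inverse-variance-weighted replicate averages.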

Polymerase ribozyme fitness (log ratio), 0.523:
C51U G141A

Polymerase ribozyme fitness (log ratio), -3.53:
C51U C95G C105G G117U

Polymerase ribozyme fitness (log ratio), -0.0301:
A52G C76A

Polymerase ribozyme fitness (log ratio), -0.599:
A52G C57A G84A

Polymerase ribozyme fitness (log ratio), -3.59:
A52G G58C G59C C96G A150U

Polymerase ribozyme fitness (log ratio), -1.74:
A52G C93U

Polymerase ribozyme fitness (log ratio), -2.05:
A52C G84U U144G

Polymerase ribozyme fitness (log ratio), -3.41:
U53A A64G

Polymerase ribozyme fitness (log ratio), -2.89:
A52U A137G

Polymerase ribozyme fitness (log ratio), -3.7:
U53A C99U U134A

Polymerase ribozyme fitness (log ratio), -2.95:
A52G G83U C96A U101C G124A U145A C149U

Polymerase ribozyme fitness (log ratio), -0.883:
A52C

Polymerase ribozyme fitness (log ratio), -3.94:
A52C C118U G143A U144C

Polymerase ribozyme fitness (log ratio), -3.58:
A52G G136U A142G

Polymerase ribozyme fitness (log ratio), ≤ -4.2:
A52G U55A G58U A60U G80C G117U C125A G133U
A52U C87A C103A G141U
A52U G71A C125A U148A
C51U C54G U56C C99U U111G U134A G140A U146A
C51U C57U A66G C76G G83A C105G U135A G140A
A52U C93U C114U U127A
A52C G83C C108G C149U
A52G G100A
A52C G67C G81C C108G A138G A142G U145C
A52G U77G G84U
C51U G71A A91U G124C
A52U C75G C85U G133A
U53A C96U G126A A147G
A52G C54A U55A C63G C75G C76U U104C A120C U127A
A52U A73G A91U G143U
A52U G68A U82G G133U A137C A142C
A52U U53A A60U U61G C93G C96G C132G G133C C149U
A52C G83U G112C
A52G C57U A60G C85A A115G G136C
A52C U139A
U53A C85A U101G A119G U127A U151A
A52C A73C G88U A97U U102G G117U U139G
A52G G84A C85U U102G C105U G112A U135G
A52G A91U U104C
A52C G94C C114G A121G
A52G C76U G84C C87G C105A C116A A120U U134C
A52C C57U A60C G62A G81U
A52C A73G G84U A115G C123G G124C C129A
C51U G86C A113G C114U A121G U151G
A52U C69U G94C U127A G133U
A52G G70C C103A A142C
U53A C57G G74C C87A C93A
C51U U53A C96A G140U
C51U G59C A91U U109A
C51G U53G U56A C96U
U53A C79U G136A
A52C C87A U134A
A52G U77G A91C
C51U C75A U144A U146C
A52C U53A G67A C85G G88A C105U A121G U135G
U53A C85G G133A G143A
A52C C76A A89G C95G U104G A122G
A52U C75U U78A C95U A142U
A52C G86C A113U G126U U134G
U53A C85U G94A U109C U146A
A52G U56A C85A G94C C99G U104G G136A
A52C U82C G84A A91C
U53A C63G A120G G143C
U53A C76G C85G
C51U A60C C85U A89G G126A A137U
U53A C93U U109G
U53A C76A G84C A122U
A52U C69G G136U
C51U C87G U111A
C51U A66G G71U A91C C99U
A52U G71A C76A C95U
C51U G83U G86U G94A U135G U144G G152C
C51U C87U G88C C93G C118A G128U
A52C C54U C95U C108G U145G
A52U U77G G84C G128A G143A
C51U G59A G92A C118G G136C
C51U C57A C79A G88C C105G
U53A A66G U146A A147U
A52G C85U A89G A106G G141U U148G
C51U C103G A138G
C51U C125A A137U
C51G U78G C87U G143A
A52U U78G G92U C95A A138C
A52U U56A G71U U77A C87A C93G C95U A97U C108G
A52G A73U U111C C114U
A52U C95G C96G C103U C114G C118A A142C
A52C C85U G100A C116A U139A
C51U U77G G133C
A52G C75G U104G
C51U G136C A138U
A52G U56G A73G G84A A107U A113C
C51G U56A G68A C93U A97G U104G G143A U146A
C51G U55G C108A A119U G124A G141A U146A
A52C G84U C93G C132G
A52C C85U G92A
A52G G74C C87A A113U C125A G140U
A52G G74A C76U G84C C118G G143U A150G
A52U U61G G80C C87G G94U A121U
A52C C69U C87U
A52G C96U G100A A120G C132G
U53A C54U C87G A89U G94U A97G A115G
A52C G65A G68C G86A U111C A142C
U53A C69U C79G C93U C123G A137C
A52U U55A A115U C118A G126U A150U
U53A C99U U148A C149A
A52C U55G A66C C85G C131G U134A
A52G U53A G80A G92C
A52C G94A A120C C125U U127A G128U
C51U A52C U56A C79A G92U A120G
A52U U77G G80C G81A C85U
C51U C76A C85G C87U A107U G117U U130G C149A
A52C C85A A98C G133A G141U U146C
C51U G59A C93U C103G G140A
C51G U53G C87U A138C
A52G C85G U104G A115U A147C
C51U C72U G80A C85A U109G
A52C C54U U78A C87U U135A
C51U U55A C116U C131A G136U G143A
U53A A64U C85A G124A
U53A C96U G117U G152U
C51U C63U G83C U151C
C51U C57G U90C A110G
A52G U61C U77C G84C
A52G U56A C75U C95G C96G A97C A113G U145G
A52C G68U C85A G88A
C51U G68U C87U U145C
A52C A66C A91C A115G
A52C G88U
A52C U101C U111C A120U G143A
C51U A60C U90C A122C
C51U A52G C76A A89G A97C C105U A119C G141U
U53A C93G
C51U G86U U104A C108A G124U
C51U G86U A89U C114U
A52C G68A C103G
A52U G88A
A52G G83U U104C C114G C125A
A52C C87A C93A U109G
A52C A64C A89U C96G
A52G U53G A106C A119U G136U
A52U C76U G86C G126C G152U
U53A C93A A106C U130A
A52G A120G U151G
A52G G70A C96A U102G C129G G143A U146A
A52G C72U C96U C108A A115G U144G
C51U U53G C93G U127C
A52U C76G A119U C125G G140A
A52U G81A U104A G124U U134A
C51U U56G C57U A97G C116U A137C A150G
C51U C87A G94C
A52G C54A C69A C87G U90C G100U C103A C105G
A52U G74A G80C C95U A147C
C51U C75A G80U A107U
C51U C54U C57A A91G G92C U144C
U53A C95U C96U A119U G152U
A52U G74C U130A U139C

Polymerase ribozyme fitness (log ratio), -2.8:
C51U U61A G84U

Polymerase ribozyme fitness (log ratio), -3.99:
A52C U56A C96A A110G

Polymerase ribozyme fitness (log ratio), -0.745:
C51U U134C

Polymerase ribozyme fitness (log ratio), -4.05:
A52G C57U C75G A91U C95G C123A

Polymerase ribozyme fitness (log ratio), -4.07:
C51U C116G G140C

Polymerase ribozyme fitness (log ratio), -2.71:
A52G C69U G143A

Polymerase ribozyme fitness (log ratio), -2.04:
A52G G62A C76U U145A

Polymerase ribozyme fitness (log ratio), -3.71:
A52G C79G

Polymerase ribozyme fitness (log ratio), -4.14:
A52C C87U A89C C99U

Polymerase ribozyme fitness (log ratio), -2.98:
A52U A89U C96A

Polymerase ribozyme fitness (log ratio), -2.85:
A52G C87U C116G A122C G136U

Polymerase ribozyme fitness (log ratio), -0.491:
A52G

Source: the RNAGym collection of RNA variant scans (doi:10.1073/pnas.2313332121)
